Data: PubChem BioAssay AID2675 (National Center for Advancing Translational Sciences (NCATS), 2010)
The campaign covered roughly 280,000 compounds. About 100 (0.036%) were called active. The inconclusive results got no clear call from the source; some entries with a clear call stand among them for comparison. Calls come from the whole dose curve; as a rule, active = well fitted inhibition curve with a large enough effect in the signal ratio, with a control signal flat (not every such curve was filed as active); inconclusive = small, poorly fitted or top-dose-only effect, or effect the other way, or a change in a side signal; inactive = no such curve, though single readings can be large or run the other way; the % refers to the signal ratio. Where the call is inconclusive, the potency comes from a doubtful curve fit. “Side channel” marks fits to a control or component signal instead of the main read-out.

molecular target: Muscleblind-like protein 1 (Homo sapiens) (UniProt Q9NR56); assay: qHTS Assay for Inhibitors of MBNL1-poly(CUG) RNA binding; conditions: TR-FRET MBNL1-His/biotin-(CUG)12 binding, 665/545 ratio; activity change, negative = inhibition: at 57.5 µM (top of the series)
Chain of UniProt Q9NR56 (Q9NR56 whole entry, looked up): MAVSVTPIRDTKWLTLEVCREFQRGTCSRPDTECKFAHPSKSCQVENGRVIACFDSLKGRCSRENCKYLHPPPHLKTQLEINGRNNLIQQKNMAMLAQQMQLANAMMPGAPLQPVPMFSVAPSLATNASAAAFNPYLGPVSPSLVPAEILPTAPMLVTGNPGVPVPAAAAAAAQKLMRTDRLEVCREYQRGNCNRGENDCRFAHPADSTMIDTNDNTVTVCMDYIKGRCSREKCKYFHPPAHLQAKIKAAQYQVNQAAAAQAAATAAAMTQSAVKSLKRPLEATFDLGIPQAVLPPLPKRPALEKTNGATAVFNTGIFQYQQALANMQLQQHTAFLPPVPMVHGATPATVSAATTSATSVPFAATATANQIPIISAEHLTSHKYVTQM
How it was run: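 Compounds (final 92 nM to 58 uM) are added to His-tagged MBNL1 and biotin-(CUG)12, then terbium anti-His antibody and streptavidin-XL665 (5 nM final). After 60 min at room temperature, the 665/545 nm ratio is read.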
% is set by controls: 0 for no effect and ±100 for the full control effect; potency is the fitted concentration of half-maximal effect; tags give direction and shape of the fitted curve or compound fluorescence and quenching.

Compound	Potency	activity change, negative = inhibition
O=c1c2ccccc2nc(/C=C/c2ccc(Cl)cc2)n1CCO	inconclusive: 39.8 µM [fluorescent, side channel, single point]	–
CC(=O)NN1C(=O)c2ccc(Oc3ccc4c(c3)C(=O)N(NC(C)=O)C4=O)cc2C1=O	inconclusive: 11.2 µM [quencher, side channel, partial curve]	–
O=C(COc1ccc2ccccc2c1)N/N=C/C1CC=CCC1 (stereo not given)	inconclusive: 1.58 µM [quencher, side channel, single point]	–
COc1ccccc1-c1cn[nH]c1-c1ccc(OCc2ccccc2)cc1O	–	inactive: 2.51%
O=C(CCC(=O)OCC(=O)c1cccc([N+](=O)[O-])c1)Nc1ccccc1Cl	inconclusive: 17.8 µM [quencher, single point]	–
CCc1c(C)c2ccc(OCC(=O)NCC3CCC(C(=O)O)CC3)c(C)c2oc1=O (stereo not given)	inconclusive: 35.5 µM [quencher, side channel, single point]	–
CN(C)CCNS(=O)(=O)c1ccc(N2CCc3ccccc32)c([N+](=O)[O-])c1	inconclusive: 6.31 µM [quencher, side channel, partial curve]	–
CCC1=NN(C(=O)c2ccccc2Br)C(O)(c2ccc(Br)cc2)C1 (stereo not given)	–	inactive: -8.04%
CCN(CCO)c1ccc(-n2c(N)c(C(=O)OC)c3nc4ccccc4nc32)cc1	inconclusive: 14.1 µM [quencher, side channel, partial curve]	–
O=C(c1cc2c(s1)-c1ccccc1OC2)N1CCCC1	inconclusive: 22.4 µM [quencher, side channel, partial curve]	–
Fc1ccc(CSc2nnc(-c3ccccn3)o2)cc1	–	inactive: 1.52%
COc1cc(/C=N/Nc2ccc(S(N)(=O)=O)cc2[N+](=O)[O-])cc(OC)c1O	inconclusive: 4.47 µM [quencher, side channel, partial curve]	–
CS(=O)(=O)c1ccccc1-c1nc(-c2ccc([N+](=O)[O-])cc2)no1	inconclusive: 2.82 µM [quencher, side channel, full curve, poor fit]	–
Cc1c(Cl)sn(-c2ccc(Cl)cc2)c1=O	–	inactive: -7.54%
O=C1OC(c2ccccc2)=N/C1=C\N1CCCCC1	inconclusive: 22.4 µM [quencher, side channel, partial curve]	–
CC1=NN(C(C#N)c2ccc([N+](=O)[O-])cc2)C(C)(C)C1 (stereo not given)	inconclusive: 14.1 µM [quencher, side channel, partial curve]	–
COc1ccc(NC(=O)COC(=O)Cc2c(F)cccc2Cl)cc1	–	inactive: 2.23%
COc1ccc(C2C=C(C34CC5CC(CC(C5)C3)C4)NC(=S)N2)cc1 (stereo not given)	inconclusive: 6.31 µM [quencher, side channel, single point]	–
CCCC(C(=O)NCC1CCCO1)N(Cc1ccco1)C(=O)CNS(=O)(=O)c1ccc(F)cc1 (stereo not given)	–	inactive: -4.25%
N#CC1=C2SCN(c3ccccc3)CN2C(=O)CC1c1cccs1 (stereo not given)	–	inactive: 42.6%

Compound	Potency	activity change, negative = inhibition
CC1CCN(C(=O)CN(c2cccc(F)c2)S(C)(=O)=O)CC1	inconclusive: 15.8 µM [inhibitor, single point]	–
CCN(CC)CCn1nc2c3c(cccc3c1=O)-c1ccccc1-2	inconclusive: 7.08 µM [quencher, side channel, partial curve]	–
O=C(O)c1nc2ccccc2nc1C(=O)O	inconclusive: 11.2 µM [quencher, side channel, partial curve]	–
N#Cc1cc2cc3c(cc2nc1SCC(=O)N1CCCC1)OCCO3	inconclusive: 7.94 µM [fluorescent, side channel, single point]	–
CCCn1nc2cc(C(=O)NCc3ccccc3)ccc2c1OCC	inconclusive: 20 µM [quencher, side channel, partial curve]	–
O=C(Nc1cccc(O)c1)c1cc(-c2cccs2)on1	–	inactive: 6.61%
Cc1c(Br)c([N+](=O)[O-])nn1CC(=O)N1CCc2ccccc21	–	inactive: -0.949%
C=CCn1c(NCc2c[nH]c3ccccc23)nc2ccccc21	inconclusive: 8.91 µM [fluorescent, side channel, partial curve]	–
COc1cccc(NC(=O)Nc2ccc3nsnc3c2)c1	inconclusive: 15.8 µM [quencher, side channel, partial curve, poor fit]	–
CC(/C=C/c1ccccc1F)=N\NC(=O)c1ccc(Cl)cc1	–	inactive: -3.16%
C/C(O)=C(\N=Nc1cc(C)ccc1O)C(N)=O	inconclusive: 11.2 µM [quencher, side channel, partial curve]	–
N#C/C(=C\c1c(Oc2ccccc2F)nc2ccccn2c1=O)C(=O)NC1CCS(=O)(=O)C1 (stereo not given)	inconclusive: 15.8 µM [quencher, side channel, partial curve]	–
CN1CCN(c2ccc([N+](=O)[O-])cc2/C=N/NC(=O)c2ccc(F)cc2)CC1	inconclusive: 14.1 µM [quencher, side channel, partial curve]	–
CCOc1cccc(CNc2ccc(O)cc2)c1OCc1ccccc1Cl	inconclusive: 79.4 µM [inhibitor, single point]	–
COc1ccc(CNC(=O)COC(=O)c2ccc(OCc3c(C)noc3C)cc2)cc1OC	inconclusive: 39.8 µM [fluorescent, side channel, single point]	–
COc1ccc(C(=O)N2CCC(C(=O)O)CC2)c2ccccc12	–	inactive: 4.68%
COC(=O)CC1C(=O)NCCN1C(=S)NC(=O)c1ccccc1[N+](=O)[O-] (stereo not given)	inconclusive: 0.1 µM [fluorescent, side channel, full curve, poor fit]	–
CCOc1ccc2[nH]c3nc(SCC(=O)NC4CC4)nnc3c2c1	inconclusive: 4.47 µM [quencher, side channel, partial curve]	–
CN(C)c1cc2c(Nc3ccc4c(cnn4Cc4ccccc4)c3)ncnc2cn1	inconclusive: 12.6 µM [quencher, side channel, partial curve]	–
COc1ccc2nc3ccccc3nc2c1NC(=O)c1ccc(Cl)cc1	–	inactive: 8.16%
